Test results taken from PubChem BioAssay AID720507 (National Center for Advancing Translational Sciences (NCATS), 2013).
Values joined by “and” are separate entries in the source; they are usually repeats but may differ in a detail not shown here. Equal values may be shown once. Screen size: about 2,300 compounds; about 140 (6.1%) were called active. The shares of active, inactive and inconclusive entries below differ from those in the screen. Calls follow the shape of the dose curve; as a rule, active = well fitted activation curve with a large enough effect; inconclusive = small, poorly fitted or top-dose-only effect; inactive = flat fitted curve, though single readings scatter. Potencies of inconclusive entries are doubtful fits and often do not repeat.

Target: D(2) dopamine receptor (Homo sapiens) (UniProt P14416)
Assay: qHTS of D3 Dopamine Receptor Agonist: D2 Dopamine Receptor B-arrestin Agonist Counterscreen; also: nearly all actives have a fitted effect of over 70% in size; as to activation: % of control where 0% means no effect
Settings: DiscoveRx PathHunter D2 beta-arrestin, luminescence, 90 min; series mostly up to 76.9 µM; activation: at the top concentration
In short: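 Cells were seeded and left to attach overnight at 37 deg C, then stimulated with compounds in DMSO for 90 minutes. Chemiluminescent detection reagent was added and the signal read after 1 hour at ambient temperature.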
Potency is read from the fitted curve at half-maximal effect; tags tell the direction and shape of the fitted curve.

UniProt P14416, sequence (P14416 whole entry, looked up): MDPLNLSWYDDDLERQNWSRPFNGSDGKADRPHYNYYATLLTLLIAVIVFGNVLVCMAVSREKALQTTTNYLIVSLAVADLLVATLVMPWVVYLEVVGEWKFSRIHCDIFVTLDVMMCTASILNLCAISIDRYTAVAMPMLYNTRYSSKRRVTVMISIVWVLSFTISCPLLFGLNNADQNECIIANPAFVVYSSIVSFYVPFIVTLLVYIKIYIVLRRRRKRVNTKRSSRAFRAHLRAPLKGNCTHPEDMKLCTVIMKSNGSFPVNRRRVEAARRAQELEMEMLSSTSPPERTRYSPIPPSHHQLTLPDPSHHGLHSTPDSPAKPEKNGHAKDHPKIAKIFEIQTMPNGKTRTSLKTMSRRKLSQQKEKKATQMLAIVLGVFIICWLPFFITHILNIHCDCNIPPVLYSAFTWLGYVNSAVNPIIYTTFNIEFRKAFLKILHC

Row | SMILES | Potency | activation
1 | Cc1cccc(OCC(=O)Nc2ccc3c(c2)nc(CCN2CCN(c4ccccn4)CC2)n3C)c1 | inconclusive: 15.8 µM [activator, full curve] | –
2 | O=c1c(CN2CCN(c3ccccn3)CC2)coc2ccccc12 | inconclusive: 6.31 µM [activator, full curve] | –
3 | CCOC(=O)N1CCN(Cc2ccc3c(c2)OCO3)CC1 | active: 5.01 µM | –
4 | COc1ccc(CN2CCN(c3ccccn3)CC2)c(OC)c1 | inconclusive: 0.794 µM [activator, full curve] | –
5 | Oc1c(CN2CCN(c3ccccn3)CC2)cc(Cl)c2cccnc12 | inconclusive: 79.4 µM [activator, partial curve, poor fit] | –
6 | O=C(NCCN1CCN(c2ccccc2)CC1)C1CCN(S(=O)(=O)c2cccs2)CC1 | inconclusive: 63.1 µM [activator, partial curve] | –
7 | Cc1c(Cl)cccc1NC(=O)CSC(C)c1nc2ccccc2c(=O)[nH]1 (configuration not stated) | – | inactive: -3.77%
8 | CC1(C)CC(=O)C=C(/C=C/c2ccccc2)C1 | – | inactive: 0.497%
9 | Cc1cccc(OCC(O)CN2CCN(c3ccccn3)CC2)c1C (configuration not stated) | inconclusive: 100 µM [activator, partial curve, poor fit] | –
10 | Cn1c(=O)cc(SCC(=O)NCCCN2CCN(c3ccccc3F)CC2)c2ccccc21 | inconclusive: 0.0501 µM [activator, full curve, poor fit] | –
11 | Cc1cc(C(=O)NNC(=O)CCN2CCN(c3ccccc3)CC2)c2ccccc2n1 | inconclusive: 17.8 µM [activator, full curve, poor fit] | –
12 | CCCC(C)NC(=O)c1cc(S(=O)(=O)N2CCCCCC2)ccc1OC (configuration not stated) | – | inactive: -0.071%
13 | Cn1c(=O)cc(SCC(=O)N2CCN(Cc3ccc4c(c3)OCO4)CC2)c2ccccc21 | – | inactive: 11.1%
14 | O=C(NCCN1CCN(c2ccccc2)CC1)c1ccc2c(c1)[nH]c(=S)n1c3ccccc3nc21 | – | inactive: 11.7%
15 | Oc1ccc(CCNc2c3ccccc3nc3ccccc23)cc1O | active: 5.01 µM | –
16 | CC1(c2ccccc2)NC(=O)N(CC(=O)Nc2ccc(S(=O)(=O)Nc3ncccn3)cc2)C1=O (configuration not stated) | – | inactive: -2.18%
17 | COCCCn1c(SCC(=O)NC2CCS(=O)(=O)C2)nnc1-c1ccc(Cl)cc1 (configuration not stated) | – | inactive: -1.61%
18 | O=C(Nc1cccc(-c2nc3ccccc3[nH]2)c1)c1ccc(C(=O)Nc2cccc(-c3nc4ccccc4[nH]3)c2)cc1 | – | inactive: 4.47%
19 | CCc1ccc(CN2CCN(c3ncccn3)CC2)cc1 | active: 0.562 µM | –
20 | CSCCC(NC(=O)c1ccccc1Cl)C(=O)Nc1ccncc1 (configuration not stated) | inconclusive: 4.47 µM [activator, full curve, poor fit] | –
21 | CCCn1c(-c2ccc(OC)cc2)nc2ccccc21 | inconclusive: 44.7 µM [activator, full curve, poor fit] | –
22 | OC(COCC1COc2ccccc2O1)CN1CCN(c2ccccc2F)CC1 (configuration not stated) | inconclusive: 126 µM [activator, partial curve] | –
23 | Cc1ccc(CN2CCN(c3cccc4[nH]ccc34)CC2)cc1 | inconclusive: 3.55 µM [activator, full curve, poor fit] | –
24 | CCc1ccc(NC(=O)C(=O)NCCN2CCN(C(=O)c3ccco3)CC2)cc1 | inconclusive: 126 µM [activator, single point] | –

Row | SMILES | Potency | activation
25 | Fc1ccccc1N1CCN(CC2CC3C=CC2C3)CC1 (configuration not stated) | inconclusive: 0.398 µM [activator, full curve] | –
26 | Cc1nc2nc(C)c(CCC(=O)NCCCN3CCN(c4cccc(Cl)c4)CC3)c(C)n2n1 | inconclusive: 2.51 µM [activator, full curve] and inconclusive: 79.4 µM [activator, partial curve] | –
27 | c1ccc2c(c1)CCN(Cc1nnnn1Cc1ccc3c(c1)OCO3)C2 | inconclusive: 39.8 µM [activator, full curve] | –
28 | CCCCN(CC)CCCNC(=O)CC1Oc2ccccc2NC1=O (configuration not stated) | active: 50.1 µM | –
29 | Oc1ccc(-c2csc(-c3cccnc3)n2)cc1O | – | inactive: 14.6%
30 | CCOC(=O)N1CCC(N2CCN(c3ccccc3)CC2)CC1 | inconclusive: 10 µM [activator, full curve] | –
31 | COc1cccc(CN2CCN(C(=O)c3cccs3)CC2)c1OC | inconclusive: 28.2 µM [activator, full curve] | –
32 | OCC1(Cc2ccccc2)CCN(Cc2cc3ccccc3o2)CC1 | active: 25.1 µM | –
33 | CC(=O)Nc1ccc(OCC(O)CN2CCN(c3cccc(Cl)c3)CC2)cc1 (configuration not stated) | inconclusive: 79.4 µM [activator, partial curve] | –
34 | O=S(=O)(c1ccc(OCC(O)CN2CCN(c3ccccc3O)CC2)cc1)N1CCOCC1 (configuration not stated) | active: 28.2 µM | –
35 | CCN(CC(=O)Nc1ccccc1C(F)(F)F)C(=O)c1ccccc1Sc1ccccc1C#N | – | inactive: -4.97%
36 | Cc1ccsc1CN1CCN(c2ccccn2)CC1 | active: 2.51 µM | –
37 | COc1ccc(CNCC2COc3ccccc3O2)cc1 (configuration not stated) | – | inactive: 9.49%
38 | N#CCC(=O)Nc1ccc(C(=O)NNC(=O)CCN2CCN(c3ccccc3)CC2)cc1 | inconclusive: 126 µM [activator, partial curve] | –
39 | O=C(c1ccccc1)N1CCN(Cc2ccccc2)CC1 | inconclusive: 5.01 µM [activator, full curve, poor fit] | –
40 | N#Cc1c(/N=C/c2ccc(-c3ccccc3C(=O)O)o2)sc2c1CCCC2 | inconclusive: 44.7 µM [activator, full curve, poor fit] | –
41 | O=C(NCC(c1ccco1)N1CCN(c2ccccc2F)CC1)C1CCCCC1 (configuration not stated) | inconclusive: 15.8 µM [activator, full curve] | –
42 | Cc1ccc(/C=N/c2sc3c(c2C#N)CCCCC3)o1 | – | inactive: 28.7%
43 | COc1ccc(N2CCN(C(=O)CCCNC(=O)Cn3cnc4sc(C)c(C)c4c3=O)CC2)cc1 | – | inactive: 5.66%
44 | C=CCN=c1scc(-c2ccco2)n1/N=C/c1ccc(O)c(O)c1O | active: 35.5 µM | –
45 | CCCS(=O)(=O)N1CCC(C(=O)NC2CCCCC2C)CC1 (configuration not stated) | – | inactive: -3.44%
46 | COc1ccc(Nc2sc(C(=O)c3ccc(Cl)cc3)c(N)c2C(=O)Nc2ccccc2OC)cc1 | – | inactive: 1.82%
47 | CCc1cc(C(=O)NNC(=O)CCN2CCN(c3ccccc3)CC2)sc1C | inconclusive: 501 µM [activator, partial curve] | –
